The CheMixHub viscosity set
Where “and” joins values, the source holds several entries; their conditions need not be identical. Equal values may be shown once. The source gives many values for each of these; only a part stands here.

Test: xn = mol fraction of the nth substance listed

CCO + O
Conditions | viscosity
308.15 K, 101 kPa, x1 = 0.1722 | 1.61 mPa·s
308.15 K, 101 kPa, x1 = 0.2 | 1.71 mPa·s
308.15 K, 101 kPa, x1 = 0.2382 | 1.707 mPa·s
308.15 K, 101 kPa, x1 = 0.24 | 1.73 mPa·s
308.15 K, 101 kPa, x1 = 0.3661 | 1.678 mPa·s
308.15 K, 101 kPa, x1 = 0.48 | 1.529 mPa·s
308.15 K, 101 kPa, x1 = 0.4821 | 1.504 mPa·s
308.15 K, 101 kPa, x1 = 0.61 | 1.355 mPa·s
308.15 K, 101 kPa, x1 = 0.7918 | 1.254 mPa·s
308.17 K, 101.33 kPa, x1 = 0.0332 | 0.94 mPa·s
308.17 K, 101.33 kPa, x1 = 0.0714 | 1.202 mPa·s
308.17 K, 101.33 kPa, x1 = 0.171 | 1.629 mPa·s
308.17 K, 101.33 kPa, x1 = 0.7355 | 1.191 mPa·s
313.15 K, 100 kPa, x1 = 0.0376 | 0.783 mPa·s
313.15 K, 100 kPa, x1 = 0.0725 | 0.995 mPa·s
313.15 K, 100 kPa, x1 = 0.1152 | 1.198 mPa·s
313.15 K, 100 kPa, x1 = 0.163 | 1.35 mPa·s
313.15 K, 101 kPa, x1 = 0.042 | 0.927 mPa·s
313.15 K, 101 kPa, x1 = 0.095 | 1.084 mPa·s
313.15 K, 101 kPa, x1 = 0.14 | 1.352 mPa·s
313.15 K, 101 kPa, x1 = 0.1722 | 1.386 mPa·s
313.15 K, 101 kPa, x1 = 0.25 | 1.513 mPa·s
313.15 K, 101 kPa, x1 = 0.28 | 1.49 mPa·s
313.15 K, 101 kPa, x1 = 0.37 | 1.447 mPa·s
313.15 K, 101 kPa, x1 = 0.48 | 1.344 mPa·s and 1.354 mPa·s
313.15 K, 101 kPa, x1 = 0.4821 | 1.305 mPa·s
313.15 K, 101 kPa, x1 = 0.61 | 1.203 mPa·s and 1.211 mPa·s
313.15 K, 101 kPa, x1 = 0.6358 | 1.248 mPa·s
313.15 K, 101 kPa, x1 = 0.78 | 1.01 mPa·s
313.15 K, 101 kPa, x1 = 0.7918 | 1.119 mPa·s
313.15 K, 101 kPa, x1 = 0.8 | 1.035 mPa·s
313.15 K, 101.33 kPa, x1 = 0.0399 | 0.838 mPa·s
313.15 K, 101.33 kPa, x1 = 0.042 | 0.946 mPa·s
313.15 K, 101.33 kPa, x1 = 0.089 | 1.043 mPa·s
313.15 K, 101.33 kPa, x1 = 0.14 | 1.193 mPa·s
313.15 K, 101.33 kPa, x1 = 0.2048 | 1.517 mPa·s
313.15 K, 101.33 kPa, x1 = 0.21 | 1.393 mPa·s
313.15 K, 101.33 kPa, x1 = 0.3526 | 1.384 mPa·s
313.15 K, 101.33 kPa, x1 = 0.7404 | 1.042 mPa·s
313.16 K, 101.3 kPa, x1 = 0.61 | 1.203 mPa·s
313.18 K, 101.33 kPa, x1 = 0.0332 | 0.8381 mPa·s
313.18 K, 101.33 kPa, x1 = 0.0714 | 1.054 mPa·s
313.18 K, 101.33 kPa, x1 = 0.1167 | 1.255 mPa·s
313.18 K, 101.33 kPa, x1 = 0.171 | 1.401 mPa·s
313.18 K, 101.33 kPa, x1 = 0.4194 | 1.384 mPa·s
313.18 K, 101.33 kPa, x1 = 0.5537 | 1.25 mPa·s
313.18 K, 101.33 kPa, x1 = 0.7355 | 1.066 mPa·s
318.15 K, 100 kPa, x1 = 0.033 | 0.738 mPa·s
318.15 K, 100 kPa, x1 = 0.116 | 0.981 mPa·s
318.15 K, 101 kPa, x1 = 0.04 | 0.812 mPa·s
318.15 K, 101 kPa, x1 = 0.09 | 1.015 mPa·s
318.15 K, 101 kPa, x1 = 0.095 | 0.947 mPa·s
318.15 K, 101 kPa, x1 = 0.1 | 1.189 mPa·s
318.15 K, 101 kPa, x1 = 0.1722 | 1.205 mPa·s
318.15 K, 101 kPa, x1 = 0.2 | 1.284 mPa·s
318.15 K, 101 kPa, x1 = 0.2382 | 1.278 mPa·s
318.15 K, 101 kPa, x1 = 0.24 | 1.307 mPa·s
318.15 K, 101 kPa, x1 = 0.3661 | 1.276 mPa·s
318.15 K, 101 kPa, x1 = 0.48 | 1.189 mPa·s
318.15 K, 101 kPa, x1 = 0.61 | 1.081 mPa·s
318.15 K, 101 kPa, x1 = 0.6358 | 1.108 mPa·s
318.15 K, 101 kPa, x1 = 0.8 | 0.939 mPa·s
318.16 K, 101.33 kPa, x1 = 0.0332 | 0.753 mPa·s
318.16 K, 101.33 kPa, x1 = 0.0714 | 0.9237 mPa·s
318.16 K, 101.33 kPa, x1 = 0.1167 | 1.095 mPa·s
318.16 K, 101.33 kPa, x1 = 0.171 | 1.216 mPa·s
318.16 K, 101.33 kPa, x1 = 0.4194 | 1.218 mPa·s
318.16 K, 101.33 kPa, x1 = 0.5537 | 1.108 mPa·s
318.16 K, 101.33 kPa, x1 = 0.7355 | 0.9555 mPa·s
323.15 K, 100 kPa, x1 = 0.0376 | 0.585 mPa·s
323.15 K, 100 kPa, x1 = 0.0725 | 0.747 mPa·s
323.15 K, 100 kPa, x1 = 0.163 | 1.004 mPa·s
323.15 K, 101 kPa, x1 = 0.04 | 0.734 mPa·s
323.15 K, 101 kPa, x1 = 0.042 | 0.798 mPa·s
323.15 K, 101 kPa, x1 = 0.089 | 0.98 mPa·s
323.15 K, 101 kPa, x1 = 0.09 | 0.907 mPa·s
323.15 K, 101 kPa, x1 = 0.095 | 0.8377 mPa·s
323.15 K, 101 kPa, x1 = 0.1 | 1.05 mPa·s
323.15 K, 101 kPa, x1 = 0.14 | 1.124 mPa·s
323.15 K, 101 kPa, x1 = 0.1722 | 1.052 mPa·s
323.15 K, 101 kPa, x1 = 0.2 | 1.124 mPa·s
323.15 K, 101 kPa, x1 = 0.21 | 1.132 mPa·s and 1.219 mPa·s
323.15 K, 101 kPa, x1 = 0.2382 | 1.125 mPa·s
323.15 K, 101 kPa, x1 = 0.24 | 1.146 mPa·s
323.15 K, 101 kPa, x1 = 0.25 | 1.257 mPa·s
323.15 K, 101 kPa, x1 = 0.28 | 1.155 mPa·s and 1.226 mPa·s
323.15 K, 101 kPa, x1 = 0.3661 | 1.121 mPa·s
323.15 K, 101 kPa, x1 = 0.37 | 1.127 mPa·s and 1.177 mPa·s
323.15 K, 101 kPa, x1 = 0.48 | 1.062 mPa·s and 1.11 mPa·s
323.15 K, 101 kPa, x1 = 0.4821 | 0.9981 mPa·s
323.15 K, 101 kPa, x1 = 0.61 | 0.968 mPa·s and 0.998 mPa·s
323.15 K, 101 kPa, x1 = 0.6358 | 0.9908 mPa·s
323.15 K, 101 kPa, x1 = 0.78 | 0.853 mPa·s
323.15 K, 101 kPa, x1 = 0.7918 | 0.9026 mPa·s
323.15 K, 101 kPa, x1 = 0.8 | 0.848 mPa·s
323.15 K, 101.33 kPa, x1 = 0.0399 | 0.658 mPa·s
323.15 K, 101.33 kPa, x1 = 0.042 | 0.769 mPa·s
323.15 K, 101.33 kPa, x1 = 0.087 | 0.834 mPa·s
323.15 K, 101.33 kPa, x1 = 0.089 | 0.808 mPa·s
323.15 K, 101.33 kPa, x1 = 0.14 | 0.937 mPa·s
323.15 K, 101.33 kPa, x1 = 0.2048 | 1.001 mPa·s
323.15 K, 101.33 kPa, x1 = 0.21 | 1.066 mPa·s
323.15 K, 101.33 kPa, x1 = 0.28 | 1.134 mPa·s
323.15 K, 101.33 kPa, x1 = 0.3526 | 1.03 mPa·s
323.15 K, 101.33 kPa, x1 = 0.6001 | 0.891 mPa·s
323.15 K, 101.33 kPa, x1 = 0.7404 | 0.816 mPa·s
